The record followed here is publication PMC4336329 (PLoS ONE, 2015).

Hit rate of the full screen: of about 310,000 compounds, about 14,000 (4.5%) showed an effect of 50% or more. The effect is printed as a negative number. The list shows a part of the results.
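Note: peak tail current of the secondary pulse compared with the same well before compound.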

The target in the assay is human ether-à-go-go-related gene (hERG) potassium channel (human, UniProt Q12809). The experiment in a line: primary screen, population patch clamp on CHO cells stably expressing hERG.
Sequence of human ether-à-go-go-related gene (hERG) potassium channel (Q12809 whole entry, looked up): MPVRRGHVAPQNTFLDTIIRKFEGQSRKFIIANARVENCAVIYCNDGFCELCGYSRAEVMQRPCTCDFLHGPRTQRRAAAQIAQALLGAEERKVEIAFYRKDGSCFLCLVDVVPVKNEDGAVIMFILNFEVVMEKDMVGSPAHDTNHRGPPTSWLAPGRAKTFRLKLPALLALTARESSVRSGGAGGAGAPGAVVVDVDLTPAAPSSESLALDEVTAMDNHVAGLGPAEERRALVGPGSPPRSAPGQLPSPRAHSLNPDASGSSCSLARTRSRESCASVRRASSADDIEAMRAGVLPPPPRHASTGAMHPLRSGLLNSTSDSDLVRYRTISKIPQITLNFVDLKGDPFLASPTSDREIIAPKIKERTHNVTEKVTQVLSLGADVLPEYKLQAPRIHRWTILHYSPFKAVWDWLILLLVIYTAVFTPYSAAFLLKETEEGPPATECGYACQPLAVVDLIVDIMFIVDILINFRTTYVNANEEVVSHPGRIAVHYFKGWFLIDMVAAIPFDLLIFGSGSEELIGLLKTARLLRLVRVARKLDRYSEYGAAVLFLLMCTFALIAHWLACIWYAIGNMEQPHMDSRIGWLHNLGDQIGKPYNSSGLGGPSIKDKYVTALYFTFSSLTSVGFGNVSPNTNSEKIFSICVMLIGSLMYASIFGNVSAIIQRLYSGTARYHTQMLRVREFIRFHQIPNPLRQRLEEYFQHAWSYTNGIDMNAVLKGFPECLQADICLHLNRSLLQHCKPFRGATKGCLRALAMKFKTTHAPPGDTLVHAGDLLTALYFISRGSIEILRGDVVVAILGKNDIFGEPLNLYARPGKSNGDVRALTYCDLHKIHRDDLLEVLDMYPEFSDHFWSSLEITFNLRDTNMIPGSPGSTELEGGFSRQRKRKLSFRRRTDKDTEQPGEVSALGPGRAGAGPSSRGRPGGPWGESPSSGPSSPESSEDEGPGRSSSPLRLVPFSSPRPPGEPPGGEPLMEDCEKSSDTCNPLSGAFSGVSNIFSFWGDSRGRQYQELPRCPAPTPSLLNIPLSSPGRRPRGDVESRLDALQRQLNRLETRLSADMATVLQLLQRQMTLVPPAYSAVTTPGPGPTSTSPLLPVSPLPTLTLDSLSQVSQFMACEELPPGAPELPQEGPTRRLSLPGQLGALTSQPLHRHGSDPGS
Regarding `Cc1[nH]n(-c2ccccc2)c(=O)c1N=Nc1ccc(Cl)cc1`, the “hERG current change (%, negative = inhibition) at 10uM” value worked out at 23.7%.

Take `COc1ccc(NC(=O)C2C3CCC4C(CCC32)C4(Cl)Cl)cc1` (stereo not shown): the “hERG current change (%, negative = inhibition) at 10uM” value was 24.3%.

On to `Cc1ccc2c(CN3CCC(C)CC3)cc(=O)oc2c1C`, for which the “hERG current change (%, negative = inhibition) at 10uM” value amounted to 0.61%.

As for `O=C(Nc1ccc(Cl)cc1Cl)c1cccc(N2C(=O)C=CC2=O)c1`, the “hERG current change (%, negative = inhibition) at 10uM” value is reported as 7.37%.

Consider `Cc1onc(-c2ccccc2)c1C(=O)Nc1ccc(S(=O)(=O)NC2=NCCCCC2)cc1`, for which the “hERG current change (%, negative = inhibition) at 10uM” value amounted to 9.51%.

Regarding `O=C(CN1CCN(Cc2ccccc2)CC1)NNC(=O)c1ccc(Cl)cc1`, the “hERG current change (%, negative = inhibition) at 10uM” value is on record as -12.1%.

Consider `O=C(/C=C/c1ccc([N+](=O)[O-])cc1)NCCSCc1ccco1`, for which the “hERG current change (%, negative = inhibition) at 10uM” value is listed as -61.3%.

Regarding `CCC(=O)N1C(C(=O)O)CSC1c1ccc(OC)cc1` (stereo not shown), the “hERG current change (%, negative = inhibition) at 10uM” value worked out at 2.53%.

Turning to `O=[N+]([O-])c1cc([N+](=O)[O-])c(Oc2c(Cl)cccc2Cl)cc1NN1CCCCC1`, the “hERG current change (%, negative = inhibition) at 10uM” value is listed as 12.7%.

Consider `CCOc1ccc(Cn2c(=O)oc3ccccc32)cc1`, for which the “hERG current change (%, negative = inhibition) at 10uM” value was found to be 16.3%.

Turning to `O=C(NC(=O)c1ccccc1F)OCc1ccc(Cl)cc1Cl`, the “hERG current change (%, negative = inhibition) at 10uM” value was -10.2%.

Consider `CC(C)(C)C(=O)NC(=S)NNC(=O)c1ccc(-c2ccccc2)cc1`, for which the “hERG current change (%, negative = inhibition) at 10uM” value is 5.01%.

In the case of `O=C(Cc1ccc(Cl)c(Cl)c1)Nc1ccccc1N1CCCC1`, the “hERG current change (%, negative = inhibition) at 10uM” value is on record as 0.464%.

On to `O=C(/C=C/c1cccc([N+](=O)[O-])c1)NCCN1C(=O)S/C(=C\c2ccc(F)cc2)C1=O`, for which the “hERG current change (%, negative = inhibition) at 10uM” value is 15.3%.

`O=C(COc1ccc(Cl)cc1)Nc1ccc2oc(-c3ccncc3)nc2c1`: the “hERG current change (%, negative = inhibition) at 10uM” value was 3.86%.

`c1ccc(-c2ccc(C3=Nn4c(nnc4-c4cc(-c5ccccc5)n[nH]4)SC3)cc2)cc1`: the “hERG current change (%, negative = inhibition) at 10uM” value is recorded as -14.2%.

`Cc1ccccc1OCC(=O)NCC(=O)OCc1ccc(Br)cc1`: the “hERG current change (%, negative = inhibition) at 10uM” value is 17.8%.

As for `S=C(c1ccccc1)N1CCN(C(=S)c2ccccc2)CC1`, the “hERG current change (%, negative = inhibition) at 10uM” value came out at 27.5%.

Regarding `CCCNC(=O)c1onc(CSc2cccc(OC)c2)c1C(=O)NCCC`, the “hERG current change (%, negative = inhibition) at 10uM” value is -7.12%.

With `COc1ccc(CC(=O)NCCC(C)C)cc1S(=O)(=O)N1CCOCC1`, the “hERG current change (%, negative = inhibition) at 10uM” value turned out to be 4.39%.

On to `COc1ccc(NC(=O)CC(C)c2ccccc2)cc1S(=O)(=O)N1CCOCC1` (stereo not shown), for which the “hERG current change (%, negative = inhibition) at 10uM” value is -4.76%.

Turning to `COc1ccc(S(=O)(=O)NCCSc2ccc(Cl)cc2)cc1OC`, the “hERG current change (%, negative = inhibition) at 10uM” value is -22.4%.

On to `CCN(Cc1ccccc1)C(=O)c1cccnc1`, for which the “hERG current change (%, negative = inhibition) at 10uM” value was 2.64%.

As to `CCn1ncc(C(=O)Nc2ccc(S(=O)(=O)N3CCCC3)cc2)c1C`, the “hERG current change (%, negative = inhibition) at 10uM” value is reported as 2.64%.

For `C=CCN(CC=C)S(=O)(=O)c1ccc(NC(=O)COc2ccccc2OC)cc1`, the “hERG current change (%, negative = inhibition) at 10uM” value is listed as -19.6%.

Consider `CC1(c2cccc(Br)c2)NC(=O)NC1=O` (stereo not shown), for which the “hERG current change (%, negative = inhibition) at 10uM” value came to 18.1%.

Consider `CC(=O)NC1C(=O)N(CCN2CCOCC2)c2ccc(F)cc21.Cl` (stereo not shown), for which the “hERG current change (%, negative = inhibition) at 10uM” value is given as 14.5%.

Consider `CCCC1=NN2C(=N)/C(=C\c3cc(C)n(-c4cccc(C)c4)c3C)C(=O)N=C2S1`, for which the “hERG current change (%, negative = inhibition) at 10uM” value worked out at 5.9%.

On to `CSc1ncccc1C(=O)NCc1ccc(C)cc1`, for which the “hERG current change (%, negative = inhibition) at 10uM” value amounted to 6.56%.

In the case of `O=C(c1ccc(F)cc1)C1CCN(C(=O)NCc2ccccc2)CC1`, the “hERG current change (%, negative = inhibition) at 10uM” value is recorded as -6.67%.

Take `O=C1NN(c2ccc(F)cc2)C(=O)/C1=C\c1cnn(-c2ccccc2)c1`: the “hERG current change (%, negative = inhibition) at 10uM” value was 2.42%.

On to `COc1cccc(C(=O)Nc2c3c(nn2-c2ccc([N+](=O)[O-])cc2)CS(=O)(=O)C3)c1`, for which the “hERG current change (%, negative = inhibition) at 10uM” value is given as -53.8%.

Consider `Cc1ccc(OCC(=O)NNC(=S)NC(=O)c2cccs2)c(C)c1`, for which the “hERG current change (%, negative = inhibition) at 10uM” value was determined as 27.9%.

Regarding `C/C(=N\Nc1nncc2ccccc12)c1ccc(Cl)c([N+](=O)[O-])c1`, the “hERG current change (%, negative = inhibition) at 10uM” value turned out to be 22.9%.

Turning to `N#CC1=C(N)Oc2cc(O)c(Cl)cc2C1c1ccccc1F` (stereo not shown), the “hERG current change (%, negative = inhibition) at 10uM” value stood at 2.63%.

As for `COc1cccc(NC(=O)C2CCCN(S(=O)(=O)c3cccc4nsnc34)C2)c1` (stereo not shown), the “hERG current change (%, negative = inhibition) at 10uM” value is reported as 0.524%.

Regarding `COC(=O)N/N=C/c1cn(CCOc2ccccc2)c2ccccc12`, the “hERG current change (%, negative = inhibition) at 10uM” value came out at 8.1%.

Turning to `Cc1cc(NC(=O)C2C3C(=O)N(c4cccnc4)C(C(=O)NC(C)(C)C)C34C=CC2(C)O4)no1` (stereo not shown), the “hERG current change (%, negative = inhibition) at 10uM” value stood at 37.2%.

For `Cc1cc(C)c2ccc(Cl)cc2n1`, the “hERG current change (%, negative = inhibition) at 10uM” value is on record as 2.82%.

Turning to `Cc1cc(OC(=O)c2c(Cl)cccc2Cl)nc(C)n1`, the “hERG current change (%, negative = inhibition) at 10uM” value is on record as -21.6%.

Take `NNC(=O)c1oc2nc(-c3ccc(Cl)cc3)cc(-c3ccccc3)c2c1N`: the “hERG current change (%, negative = inhibition) at 10uM” value turned out to be 16.6%.

Turning to `Cn1c(C(C#N)C2=C(Cl)C(=O)N(c3ccccc3)C2=O)nc2ccccc21` (stereo not shown), the “hERG current change (%, negative = inhibition) at 10uM” value is on record as -2.15%.

Regarding `O=C(c1cccc(C(F)(F)F)c1)C1CCCN(Cc2cccn2-c2ccccn2)C1` (stereo not shown), the “hERG current change (%, negative = inhibition) at 10uM” value is -83.5%.

Take `O=C(NCc1cccs1)c1ccc(Br)o1`: the “hERG current change (%, negative = inhibition) at 10uM” value is listed as 2.25%.

On to `Cc1ccc(OCc2ccc(Br)cc2)c([N+](=O)[O-])n1`, for which the “hERG current change (%, negative = inhibition) at 10uM” value is recorded as 5.73%.

Turning to `CCOC(=O)CSC(CC)C(=O)Nc1nnc(C(C)C)s1` (stereo not shown), the “hERG current change (%, negative = inhibition) at 10uM” value is reported as -1.01%.

With `N#Cc1cc2ccccc2nc1SCC(=O)Nc1ccc(S(=O)(=O)N2CCCC2)cc1`, the “hERG current change (%, negative = inhibition) at 10uM” value was 6.03%.

Regarding `COc1ccc(Cn2nnnc2C(C(C)C)N2CCc3ccccc32)cc1` (stereo not shown), the “hERG current change (%, negative = inhibition) at 10uM” value is -16%.

For the compound `COc1cc(CNCCc2ccc(S(N)(=O)=O)cc2)ccc1OCC(=O)NC1CCCCC1.Cl`, the “hERG current change (%, negative = inhibition) at 10uM” value is recorded as 10.6%.

Regarding `NC(=O)C1CCN(C(=O)COc2ccc(Nc3ccccc3)cc2)CC1`, the “hERG current change (%, negative = inhibition) at 10uM” value was -11.3%.

`O=C(N/N=C/c1c[nH]c2ccccc12)c1ccc(Cl)cc1`: the “hERG current change (%, negative = inhibition) at 10uM” value is -2.18%.

In the case of `O=C(Nc1nnc(C2CC2)s1)C1Cc2ccccc2CN1S(=O)(=O)c1ccccc1F` (stereo not shown), the “hERG current change (%, negative = inhibition) at 10uM” value worked out at 0.0152%.

As for `Br.O=C(O)c1ccc(Nc2nc(-c3ccccc3)cs2)cc1`, the “hERG current change (%, negative = inhibition) at 10uM” value is listed as 5.87%.

`O=C(c1cccc(S(=O)(=O)NCc2ccc3c(c2)OCO3)c1)N1CCCC1`: the “hERG current change (%, negative = inhibition) at 10uM” value is -0.297%.

`CCOC(=O)C1CCN(C(=O)c2cc(CN3C(=O)c4ccccc4C3=O)ccc2OCC)CC1`: the “hERG current change (%, negative = inhibition) at 10uM” value was -28.9%.
